The values below come from publication PMC4336329 (PLoS ONE, 2015).

The whole screen tested about 310,000 compounds, of which about 2,200 (0.71%) showed an effect of 50% or more. The effect is printed as a negative number. The list shows a part of the results.

The target in the experiment is human ether-à-go-go-related gene (hERG) potassium channel (human, UniProt Q12809). Description: primary screen, population patch clamp on CHO cells stably expressing hERG.
Sequence of human ether-à-go-go-related gene (hERG) potassium channel (Q12809 whole entry, looked up): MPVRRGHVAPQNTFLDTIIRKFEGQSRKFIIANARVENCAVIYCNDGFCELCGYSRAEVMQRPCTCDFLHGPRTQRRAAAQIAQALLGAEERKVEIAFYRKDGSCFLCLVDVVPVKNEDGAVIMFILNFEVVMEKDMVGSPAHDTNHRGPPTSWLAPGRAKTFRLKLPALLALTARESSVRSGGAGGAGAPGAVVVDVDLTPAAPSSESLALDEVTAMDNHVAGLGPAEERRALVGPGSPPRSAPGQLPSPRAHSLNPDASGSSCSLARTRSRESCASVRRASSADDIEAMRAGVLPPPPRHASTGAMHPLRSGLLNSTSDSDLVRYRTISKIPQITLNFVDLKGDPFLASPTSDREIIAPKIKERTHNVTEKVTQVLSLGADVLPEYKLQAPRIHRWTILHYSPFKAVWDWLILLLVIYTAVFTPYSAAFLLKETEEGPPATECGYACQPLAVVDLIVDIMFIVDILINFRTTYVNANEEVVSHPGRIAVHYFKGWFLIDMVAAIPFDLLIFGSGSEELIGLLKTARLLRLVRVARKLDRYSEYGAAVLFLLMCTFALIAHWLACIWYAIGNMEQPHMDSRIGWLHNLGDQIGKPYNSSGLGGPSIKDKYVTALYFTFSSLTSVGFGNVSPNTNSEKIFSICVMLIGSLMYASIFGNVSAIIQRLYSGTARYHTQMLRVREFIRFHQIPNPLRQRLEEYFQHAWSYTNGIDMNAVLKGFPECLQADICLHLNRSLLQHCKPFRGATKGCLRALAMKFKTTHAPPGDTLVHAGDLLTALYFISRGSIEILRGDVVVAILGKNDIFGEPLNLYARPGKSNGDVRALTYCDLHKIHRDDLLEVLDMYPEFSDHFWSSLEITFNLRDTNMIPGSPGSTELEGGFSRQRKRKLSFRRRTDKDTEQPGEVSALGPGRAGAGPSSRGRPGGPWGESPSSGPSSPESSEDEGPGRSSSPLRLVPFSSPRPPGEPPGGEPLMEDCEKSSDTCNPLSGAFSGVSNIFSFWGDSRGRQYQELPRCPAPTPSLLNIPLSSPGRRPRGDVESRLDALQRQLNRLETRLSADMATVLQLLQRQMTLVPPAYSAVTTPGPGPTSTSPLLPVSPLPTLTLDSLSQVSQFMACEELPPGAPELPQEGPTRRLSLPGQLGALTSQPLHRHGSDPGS
As for `O=C(CCC(=O)N1CCN(Cc2ccc(F)cc2)CC1)Nc1nnc(C(F)(F)F)s1`, the “hERG current change (%, negative = inhibition) at 1uM” value is 9.26%.
Under `CC1Oc2ccccc2N(CC(=O)NCc2ccc3c(c2)OCO3)C1=O` (stereo not shown) stands 14.5%; under `CC1CC(C)CN(CCOc2ccccc2-c2ccccc2)C1.O=C(O)C(=O)O` (stereo not shown), -7.35%; under `Cc1cc(C)n(-c2nc(NCCCN(C)C)c3c4c(sc3n2)COC(C)(C)C4)n1`, 3.82%.
To `CCC(C(=O)N1CCOCC1)n1c(C(=O)OC)cc2occc21` (stereo not shown) belongs 14.9%.
For the molecule `Cc1ccc(-c2cc(C(=O)N/N=C/c3cccnc3)n[nH]2)o1`, the “hERG current change (%, negative = inhibition) at 1uM” value was 9.21%.
Consider `COc1ccc(OCCC(=O)OCC(=O)NCc2ccccc2)cc1`, for which the “hERG current change (%, negative = inhibition) at 1uM” value is given as 13.3%.
`O=C(CSc1nc2[nH]ncc2c(=O)[nH]1)Nc1ccc(OC(F)(F)F)cc1`: the “hERG current change (%, negative = inhibition) at 1uM” value amounted to 14.4%.
Take `COc1cc([N+](=O)[O-])cc(/C=N\NC(=O)C2COc3ccccc3O2)c1O` (stereo not shown): the “hERG current change (%, negative = inhibition) at 1uM” value was determined as 8.58%.
Under `COc1ccc(-c2noc(CN(Cc3nccn3C)C(C)C)n2)cc1` stands 8.87%; under `C/C(=N\NC(=O)CC#N)c1cc2ccc(O)cc2oc1=O`, 9.26%; under `N#CSCC(=O)c1cccc2ccccc12`, 11.3%.
On to `COc1ccc(C(=O)Nc2nnc(C3=COCCO3)o2)cc1`, for which the “hERG current change (%, negative = inhibition) at 1uM” value is 13.3%.
To `Cc1cc(C(=O)NCc2ccco2)c2ccccc2n1` belongs 2.67%; to `Cc1cc(C(=O)N/N=C/c2ccc(N(C)C)o2)cs1`, 9.57%; to `CC(=O)Nc1ccc(NC(=O)C(C)OC(=O)CNC(=O)c2sc3ccccc3c2Cl)cc1` (stereo not shown), 19.7%.
To `Cc1ccc(-c2ccc(=O)n(CC(=O)N3CCN(c4cccc(C)c4)C(C)C3)n2)cc1` (stereo not shown) belongs 4.26%; to `CCOc1ccc(C(=O)NNC(=O)c2cc(C)oc2C)cc1`, 12.6%; to `Cc1ccc(-c2csc3nc(C)n(-n4c(C)ccc4C)c(=O)c23)o1`, 13.9%.
To `Cc1nn(C)c(C)c1CCC(=O)NC1CC(C)(C)Cc2c1cnn2-c1ccccc1` (stereo not shown) belongs -8.83%.
Regarding `Cc1ccc(NC(=O)CCN2C(=O)OC(C)(C)C2(C)O)cc1` (stereo not shown), the “hERG current change (%, negative = inhibition) at 1uM” value came out at 13%.
On to `COc1ccc(-n2nnnc2SC(C)C(=O)NC2CCCC2)cc1` (stereo not shown), for which the “hERG current change (%, negative = inhibition) at 1uM” value was determined as 11.8%.
Under `CCCC(=O)N1CCN(c2ccc(NC(=O)c3cc4ccccc4o3)cc2Cl)CC1` stands -16.2%; under `COc1cc(C(=O)N/N=C(\C)c2ccc(NC(=O)Cc3ccccc3)cc2)ccc1O`, 22.4%; under `COC(=O)c1cc(Cl)c(NC(=O)C(C)C)cc1OC`, 8.28%.
`S=C(NCc1ccccc1)NCc1ccc2c(c1)OCO2`: the “hERG current change (%, negative = inhibition) at 1uM” value came to 4.21%.
To `COc1ccc(OC)c(NC(=O)COC(=O)c2ccc(S(=O)(=O)N3CCOCC3)cc2)c1` belongs -2.63%; to `Cc1cc(=O)oc2cc(OCC(=O)Nc3ccccc3C(N)=O)c(Cl)cc12`, 12.2%.
With `CC(C)(C)C1CCC(OC(=O)c2cncc(Br)c2)CC1` (stereo not shown), the “hERG current change (%, negative = inhibition) at 1uM” value amounted to 16.5%.
Regarding `CCc1noc(C)c1C(=O)N1CC(C)OC(C)C1` (stereo not shown), the “hERG current change (%, negative = inhibition) at 1uM” value worked out at 12.5%.
As for `CC(C)c1ccc(CN(C(=O)C2COc3ccccc3O2)C2CCS(=O)(=O)C2)cc1` (stereo not shown), the “hERG current change (%, negative = inhibition) at 1uM” value came to 8.41%.
Under `CCOc1ccc(OCCOc2ncnc3ccccc23)cc1` stands 7.05%.
Take `O=C(NCc1ccccc1)C(=O)Nc1nc(-c2ccccc2)cs1`: the “hERG current change (%, negative = inhibition) at 1uM” value came to 10.9%.
To `Cc1oc2cc(O)ccc2c(=O)c1-c1cnn(-c2ccccc2)c1` belongs 14.4%; to `Cc1ccc(S(=O)(=O)N2CCCCC2CCNC(=O)C(=O)NC2CC2)cc1` (stereo not shown), -1.28%; to `Cc1cc(C(=O)N2CCCC(C(=O)c3ccc(Cl)cc3C)C2)no1` (stereo not shown), 4.44%.
Consider `O=C(CCCc1ccccc1)c1ccc2c(c1)OCCO2`, for which the “hERG current change (%, negative = inhibition) at 1uM” value was determined as 7.04%.
Regarding `Cc1nc(-c2ccc(F)cc2)c(CC(=O)N(C)CC(=O)Nc2ccccc2Br)s1`, the “hERG current change (%, negative = inhibition) at 1uM” value was determined as 9.94%.
To `COc1ccccc1C(=O)N1CCN(Cc2cccnc2)CC1.O=C(O)C(=O)O` belongs 11.6%; to `O=C(N/N=C/c1ccc2cccc(OCc3ccccc3)c2n1)c1ccc(Cl)cc1`, 11.1%; to `S=C(c1ccc(-c2ccc(Cl)cc2Cl)o1)N1CCCCC1`, 12.1%.
`Cc1cc(C(=O)N/N=C/c2ccc(Cl)c([N+](=O)[O-])c2)c(C)n1-c1ccc(F)cc1`: the “hERG current change (%, negative = inhibition) at 1uM” value is -1.26%.
To `Cc1ccc(NC(=O)COc2ccccc2C(=O)NCCN(C)C)cc1` belongs -0.314%.
To `CC1(C)CC(NC(=O)C23CCC(C)(C2Br)C3(C)C)CC(C)(C)N1` (stereo not shown) belongs 2.73%; to `O=C1N=C(N2CCN(c3ccccc3)CC2)SC1Cc1ccccc1` (stereo not shown), -9.64%.
For `COc1ccc2nc(NC(=O)CSCc3c(C)noc3C)sc2c1`, the “hERG current change (%, negative = inhibition) at 1uM” value turned out to be 7.47%.
On to `Cc1ccc(-n2c(N)c(C(=O)Nc3c(C)n(C)n(-c4ccccc4)c3=O)c3nc4ccccc4nc32)cc1`, for which the “hERG current change (%, negative = inhibition) at 1uM” value was found to be 3.38%.
Regarding `COc1ccc(NC(=O)c2cccc(N3C(=O)C4C5C=CC(C6CC56)C4C3=O)c2)c(OC)c1` (stereo not shown), the “hERG current change (%, negative = inhibition) at 1uM” value amounted to 3.14%.
Under `COc1ccc(OCCCC(=O)Nc2ccc3c(c2)OCCO3)cc1` stands 8.02%; under `O=C(c1cccc2ccccc12)C1CCCN(C(=O)c2ccc(N3CCOCC3)cc2)C1` (stereo not shown), 8.57%; under `S=C(Nc1ccc(Cl)c(Cl)c1)N1CCOCC1`, 1.17%.
`O=C(Nc1ccccc1Cl)c1cccc(NC(=O)C2CCCC2)c1`: the “hERG current change (%, negative = inhibition) at 1uM” value worked out at 4.79%.
Under `Cc1cccc(-c2n[nH]c(=S)n2/N=C/c2cccs2)c1` stands 6.64%; under `CCOC(=O)CNC(=O)C(NC(=O)C1CCC(C)CC1)C(C)CC` (stereo not shown), 6.54%.
Under `O=C1CC(c2ccccc2)=Nc2ccccc2N1` stands 0.924%; under `COc1ccc(OC)c(S(=O)(=O)NCCc2cn3ccsc3n2)c1`, 8.51%.
Regarding `CCN1CCN(C(=S)c2ccc(-c3ccccc3)cc2)CC1`, the “hERG current change (%, negative = inhibition) at 1uM” value was 8.77%.
`COC(=O)c1cc(O)c(OCc2ccccc2)c(O)c1`: the “hERG current change (%, negative = inhibition) at 1uM” value is 15.6%.
To `COc1ccc(CN2C(=O)c3cccnc3C2Nc2cc(Cl)c(OC)cc2OC)cc1` (stereo not shown) belongs 10.2%.
Under `CN(NC1OC(=O)c2ccccc21)c1c([N+](=O)[O-])cc(C(F)(F)F)cc1[N+](=O)[O-]` (stereo not shown) stands 9.73%; under `COCCn1nnnc1C(c1ccccc1OC)N1CCN(c2ccccc2F)CC1.Cl` (stereo not shown), -2.23%.
To `Cc1cc(C)c(C)c(S(=O)(=O)N2CCN(C(=O)c3ccc4c(=O)n5c(nc4c3)CCC5)CC2)c1C` belongs 4.77%; to `Cc1c(NC(=O)Nc2ccccc2C(F)(F)F)c(=O)n(-c2ccccc2)n1C`, 15.9%.
Consider `COc1cc(OC)cc(C(=O)OCC(=O)Nc2cccc(C(C)=O)c2)c1`, for which the “hERG current change (%, negative = inhibition) at 1uM” value is listed as 4.13%.
To `C/C(=N\O)C1(C)N(O)C(C)(C)C(c2ccco2)=[N+]1[O-]` (stereo not shown) belongs 16.9%; to `CCOc1ccc(NC(=O)c2ccc3c(c2)N(Cc2ccc(F)cc2)C(=O)CS3=O)cc1` (stereo not shown), 9.04%; to `CCC(=O)c1cc2c(C)cc(=O)oc2c(C)c1OC`, 8.31%.
`Cc1ccc(Cl)c(OCC(=O)N(C)CC(=O)Nc2ccc(N3CCOCC3)cc2)c1`: the “hERG current change (%, negative = inhibition) at 1uM” value is given as 8.83%.
For the molecule `Cc1cccn2c(=O)c(C=O)c(N3CCC4(CC3)OCCO4)nc12`, the “hERG current change (%, negative = inhibition) at 1uM” value was found to be 8.96%.
Under `Cc1ccc(C(C)C)c(OCc2nnc(SCC(=O)Nc3nccs3)n2C)c1` stands 5.57%; under `CC(=O)N1N=C(c2ccco2)CC1c1ccc(C)cc1` (stereo not shown), 10.4%.
To `COC(=O)c1cc(C(=O)Nc2nc3ccccc3[nH]2)cc([N+](=O)[O-])c1` belongs 14%.
As to `CCC(=O)N1CCc2cc(Br)cc(S(=O)(=O)N3CCC(C(=O)NCCCOC(C)C)CC3)c21`, the “hERG current change (%, negative = inhibition) at 1uM” value came to 14.4%.
To `O=c1[nH]c(O)c(N=Nc2cc(C(F)(F)F)ccc2Cl)c(=O)[nH]1` belongs 11.8%.
To `O=C(O)Cc1ccc(NC(=O)c2ccc(Cl)c(Cl)c2)cc1` belongs 14.6%; to `Cc1ccc(C(=O)NNC(=O)C2CC2)cc1Br`, 16.8%; to `O=C(NCCc1ccccn1)c1ccc(S(=O)(=O)N2CCCCCC2)cc1`, -5.2%.
`c1c(CC2CCCC2)nnn1C[C@H]1CC[C@@H]([C@@H]2CC[C@H](Cn3cc(CC4CCCC4)nn3)O2)O1`: the “hERG current change (%, negative = inhibition) at 1uM” value is on record as -21.8%.
For `CC1CCN(C(=O)CC(NC(=O)c2ccccc2Cl)c2ccccc2)CC1` (stereo not shown), the “hERG current change (%, negative = inhibition) at 1uM” value is recorded as 4.86%.
On to `CC(C)(C)Nc1c(-c2cccs2)nc2ccccn12`, for which the “hERG current change (%, negative = inhibition) at 1uM” value is 14.1%.
With `CCN(CC)c1ccc(C(=O)Nc2ccccc2)cc1[N+](=O)[O-]`, the “hERG current change (%, negative = inhibition) at 1uM” value came out at 4.11%.
Regarding `COc1cccc(OC)c1C(=O)Nc1cccc(NC(=O)c2cccs2)c1`, the “hERG current change (%, negative = inhibition) at 1uM” value was 16.7%.
On to `CCCn1nnc(NC(=O)c2ccc(Br)cc2)n1`, for which the “hERG current change (%, negative = inhibition) at 1uM” value turned out to be 4.06%.
Take `CC(C)c1ccc(C(O)c2cnc(C(C)C)n2C)cc1` (stereo not shown): the “hERG current change (%, negative = inhibition) at 1uM” value is reported as 3.38%.
To `O=C(CSc1nnc(CNc2ccccc2)o1)N1CCCc2ccccc21` belongs -3.37%; to `CCOC(=O)c1cnn(Cc2ccc(C)cc2)c1N`, 14.5%.
To `O=C1c2ccncc2C(=O)N1CO` belongs 13.1%; to `Cc1cccc2cc(CN(Cc3cccs3)Cc3nnnn3Cc3ccccc3)c(=O)[nH]c12`, -3.15%.
